Results reported in the antibiotic and cytotoxicity screens of Wong et al. (2023).
The list shows a part of the results.

Key:
HSkMC = human skeletal muscle cells; assay: cytotoxicity call (relative viability < 0.9); conditions: 10 µM
HepG2 = assay: cytotoxicity call (relative viability < 0.9); conditions: 10 µM
S. aureus RN4220 = assay: growth inhibition call (relative growth <= 0.2); conditions: 50 µM

NNCCc1ccccc1.O=S(=O)(O)O
inactive: cytotoxicity call (HSkMC) | cytotoxicity call (HepG2) | growth inhibition call (S. aureus RN4220)

COc1ccc(NC(=O)N(C)C[C@@H]2OCCCC[C@@H](C)Oc3ccc(NC(=O)NC4CCCCC4)cc3C(=O)N([C@@H](C)CO)C[C@H]2C)cc1
inactive: cytotoxicity call (HSkMC) | cytotoxicity call (HepG2) | growth inhibition call (S. aureus RN4220)

COc1ccc(S(=O)(=O)N(C)C[C@@H]2Oc3ccc(NC(=O)C4CC4)cc3CC(=O)N([C@H](C)CO)C[C@H]2C)cc1
inactive: cytotoxicity call (HSkMC) | cytotoxicity call (HepG2) | growth inhibition call (S. aureus RN4220)

C[C@@H]1CN([C@@H](C)CO)C(=O)c2cc(NC(=O)Nc3ccc(C(F)(F)F)cc3)ccc2O[C@@H](C)CCCCO[C@H]1CN(C)Cc1ccncc1
inactive: cytotoxicity call (HSkMC) | cytotoxicity call (HepG2) | growth inhibition call (S. aureus RN4220)

Cc1ccc(S(=O)(=O)N(C)C[C@@H]2Oc3c(NS(=O)(=O)c4c(C)noc4C)cccc3C(=O)N([C@H](C)CO)C[C@@H]2C)cc1
inactive: cytotoxicity call (HSkMC) | cytotoxicity call (HepG2) | growth inhibition call (S. aureus RN4220)

COc1cccc(-n2cc(C(=O)NO)nn2)c1
inactive: cytotoxicity call (HSkMC) | cytotoxicity call (HepG2) | growth inhibition call (S. aureus RN4220)

Cc1ccc(S(=O)(=O)N(C)C[C@@H]2OCCCC[C@H](C)Oc3ccc(NC(=O)Nc4ccccc4)cc3C(=O)N([C@@H](C)CO)C[C@@H]2C)cc1
inactive: cytotoxicity call (HSkMC) | cytotoxicity call (HepG2) | growth inhibition call (S. aureus RN4220)

C[C@@H](O)CCCCn1c(=O)c2c(ncn2C)n(C)c1=O
inactive: cytotoxicity call (HSkMC) | cytotoxicity call (HepG2) | growth inhibition call (S. aureus RN4220)

CCOC(=O)CNc1n[nH]c(=O)[nH]c1=O
inactive: cytotoxicity call (HSkMC) | cytotoxicity call (HepG2) | growth inhibition call (S. aureus RN4220)

C[C@H](CO)N1C[C@H](C)[C@@H](CN(C)S(=O)(=O)c2cn(C)cn2)Oc2c(NS(=O)(=O)c3ccc(Cl)cc3)cccc2C1=O
inactive: cytotoxicity call (HSkMC) | cytotoxicity call (HepG2) | growth inhibition call (S. aureus RN4220)

C[C@@H]1CCCCO[C@@H](CN(C)S(=O)(=O)c2cccs2)[C@@H](C)CN([C@H](C)CO)C(=O)c2cc(NS(=O)(=O)c3cn(C)cn3)ccc2O1
inactive: cytotoxicity call (HSkMC) | cytotoxicity call (HepG2) | growth inhibition call (S. aureus RN4220)

C[C@H]1CCCCO[C@H](CN(C)S(=O)(=O)c2ccccc2)[C@@H](C)CN([C@@H](C)CO)C(=O)c2cc(NC(=O)NC3CCCCC3)ccc2O1
inactive: cytotoxicity call (HSkMC) | cytotoxicity call (HepG2) | growth inhibition call (S. aureus RN4220)

COC(=O)CCCCCCC(=O)N/N=C/[C@H](O)[C@@H](O)[C@H](O)CO
inactive: cytotoxicity call (HSkMC) | cytotoxicity call (HepG2) | growth inhibition call (S. aureus RN4220)

Cc1noc(C)c1S(=O)(=O)Nc1cccc2c1O[C@@H](CN(C)S(=O)(=O)c1ccc(Cl)cc1)[C@@H](C)CN([C@H](C)CO)C2=O
inactive: cytotoxicity call (HSkMC) | cytotoxicity call (HepG2) | growth inhibition call (S. aureus RN4220)

CCCC(=O)Nc1ccc2c(c1)C(=O)N(C)C[C@@H](OC)[C@@H](C)CN(Cc1ccc(-c3ccccn3)cc1)[C@@H](C)CO2
inactive: cytotoxicity call (HSkMC) | cytotoxicity call (HepG2) | growth inhibition call (S. aureus RN4220)

Nc1ccc(OCC(=O)N2CCOCC2)cc1
inactive: cytotoxicity call (HSkMC) | cytotoxicity call (HepG2) | growth inhibition call (S. aureus RN4220)

O=C(C[C@@H]1C[C@@H]2c3cc(NC(=O)c4ccc5c(c4)OCO5)ccc3O[C@@H]2[C@@H](CO)O1)NCc1ccccn1
inactive: cytotoxicity call (HSkMC) | cytotoxicity call (HepG2) | growth inhibition call (S. aureus RN4220)

C[C@@H]1CN([C@@H](C)CO)C(=O)c2cc(NC(=O)CCCN(C)C)ccc2O[C@H]1CN(C)S(=O)(=O)c1ccc(F)cc1
inactive: cytotoxicity call (HSkMC) | cytotoxicity call (HepG2) | growth inhibition call (S. aureus RN4220)

O=C(C[C@@H]1CC=CCC[C@@H](Cc2ccc(F)cc2)C(=O)OC[C@@H](Cc2c[nH]c3ccccc23)NC1=O)N[C@@H](CO)Cc1ccccc1
inactive: cytotoxicity call (HSkMC) | cytotoxicity call (HepG2) | growth inhibition call (S. aureus RN4220)

COc1ccc2c3c(n(c2c1)C)[C@H](CO)N(C[C@]13CCN(CC1)C(=O)Nc1cccc(c1)F)S(=O)(=O)C
inactive: cytotoxicity call (HSkMC) | cytotoxicity call (HepG2) | growth inhibition call (S. aureus RN4220)

C[C@H](CO)N1C[C@H](C)[C@@H](CN(C)C(=O)c2ccncc2)OCCCC[C@H](C)Oc2ccc(NS(=O)(=O)c3ccc(Cl)cc3)cc2C1=O
inactive: cytotoxicity call (HSkMC) | cytotoxicity call (HepG2) | growth inhibition call (S. aureus RN4220)

O=C(Nc1nccs1)[C@@H]1[C@@H](CO)[C@@H]2Cn3c(cccc3=O)[C@@H]2N1C(=O)C1CC1
inactive: cytotoxicity call (HSkMC) | cytotoxicity call (HepG2) | growth inhibition call (S. aureus RN4220)

CC(C)NC(=O)Nc1ccc2c(c1)C(=O)N([C@@H](C)CO)C[C@@H](C)[C@@H](CN(C)C(=O)Nc1ccccc1)OCCCC[C@@H](C)O2
inactive: cytotoxicity call (HSkMC) | cytotoxicity call (HepG2) | growth inhibition call (S. aureus RN4220)
